Measurements as given in article PMC4538817.
Changes are numbered by the printed parent chain. Names and notes keep the numbering of the source. No constants are given. Whether binding was seen depends on the method and setting. Binding seen in cells or lysates may run through a third protein. Some binding calls cover weakened binding; strength is not graded here. For some assays here: Where a sequence is shown, tags or fusion partners need not be part of it. Each block holds one binder with its values, some of them ahead of it.

The chains behind the UniProt entries cited, without tags or fusion partners.
UniProt Q9Y6K9: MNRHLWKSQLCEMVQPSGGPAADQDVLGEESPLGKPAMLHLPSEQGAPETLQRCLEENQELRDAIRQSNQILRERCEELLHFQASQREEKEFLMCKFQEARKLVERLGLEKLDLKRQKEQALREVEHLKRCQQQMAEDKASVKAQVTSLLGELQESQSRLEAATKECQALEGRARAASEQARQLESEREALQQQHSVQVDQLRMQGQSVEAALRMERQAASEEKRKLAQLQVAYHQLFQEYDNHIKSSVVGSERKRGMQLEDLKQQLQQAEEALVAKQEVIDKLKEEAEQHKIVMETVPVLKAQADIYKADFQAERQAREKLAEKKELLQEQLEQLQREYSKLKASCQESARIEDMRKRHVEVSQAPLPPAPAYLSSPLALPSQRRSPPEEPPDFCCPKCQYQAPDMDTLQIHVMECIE

Columns and labels:
[1] = molecular target: T1, HA-tagged human TRAF2 (human), Q12933; test: co-IP; HEK293 (text: HEK293T), silenced or not for FKBP51 (siRNA), transfected with combinations of HA-IKKα, -IKKβ, -IKKγ, -TAK1, -TRAF2 and Flag-FKBP51; precipitating antibody not told; settings: remark: other sources report otherwise
T1 chain: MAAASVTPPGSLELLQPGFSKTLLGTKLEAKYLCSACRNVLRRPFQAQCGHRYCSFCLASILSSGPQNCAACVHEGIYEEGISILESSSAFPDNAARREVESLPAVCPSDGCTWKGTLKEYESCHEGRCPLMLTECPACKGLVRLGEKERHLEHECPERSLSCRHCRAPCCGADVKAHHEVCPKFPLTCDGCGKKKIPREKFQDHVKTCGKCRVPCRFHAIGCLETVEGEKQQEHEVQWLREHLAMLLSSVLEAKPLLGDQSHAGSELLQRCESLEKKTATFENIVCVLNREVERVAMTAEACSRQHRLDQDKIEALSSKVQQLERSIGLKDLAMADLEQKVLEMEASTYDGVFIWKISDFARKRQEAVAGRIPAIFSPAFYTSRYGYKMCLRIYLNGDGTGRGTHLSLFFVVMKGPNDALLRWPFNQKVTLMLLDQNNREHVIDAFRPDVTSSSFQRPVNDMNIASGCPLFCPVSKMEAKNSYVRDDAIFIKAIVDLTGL

[2] = molecular target: T2, Flag-FKBP51 (pRK5 FKBP51 WT) (UniProt Q13451); test: co-IP; HEK293T (legends: HEK293) co-transfected with Flag-FKBP51 or its mutants and HA-tagged partners; anti-Flag immunoprecipitation, blot with anti-HA, anti-TRAF2 or anti-IKKα/β; RIPA buffer; with or without FK506 (Figure 3B); the precipitating antibody is not told for Figures 3B and 4B
T2 sequence: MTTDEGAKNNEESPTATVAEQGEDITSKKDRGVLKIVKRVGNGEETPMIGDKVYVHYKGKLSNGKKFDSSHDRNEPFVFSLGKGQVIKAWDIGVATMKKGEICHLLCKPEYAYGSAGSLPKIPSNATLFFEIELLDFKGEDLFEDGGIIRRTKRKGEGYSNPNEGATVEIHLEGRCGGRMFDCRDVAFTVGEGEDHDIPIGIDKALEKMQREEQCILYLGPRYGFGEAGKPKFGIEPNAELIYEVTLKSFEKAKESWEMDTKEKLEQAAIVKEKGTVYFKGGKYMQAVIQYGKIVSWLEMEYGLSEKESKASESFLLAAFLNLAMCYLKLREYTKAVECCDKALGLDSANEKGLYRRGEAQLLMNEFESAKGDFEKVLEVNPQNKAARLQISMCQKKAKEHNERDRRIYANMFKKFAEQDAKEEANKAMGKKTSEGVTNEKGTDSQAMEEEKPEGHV

[3] = molecular target: HA-tagged human IKKγ (human), Q9Y6K9; test: co-IP; HEK293 transfected; IKKγ immunoprecipitated (anti-IKKγ), blot with anti-HA, anti-IKKα/β, anti-TRAF2 or anti-Flag; RIPA buffer; cells silenced or not for FKBP51 (Figure 2B); with Flag-FKBP51 or its mutants (Figure 5B, 5C); settings: remark: other sources report otherwise
[4] = molecular target: T3, endogenous IKKα (human (endogenous in A375)) (UniProt O15111); test: co-IP; endogenous IKKα and endogenous FKBP51 immunoprecipitated from whole lysates of A375 melanoma cells; immunoblot
T3 sequence: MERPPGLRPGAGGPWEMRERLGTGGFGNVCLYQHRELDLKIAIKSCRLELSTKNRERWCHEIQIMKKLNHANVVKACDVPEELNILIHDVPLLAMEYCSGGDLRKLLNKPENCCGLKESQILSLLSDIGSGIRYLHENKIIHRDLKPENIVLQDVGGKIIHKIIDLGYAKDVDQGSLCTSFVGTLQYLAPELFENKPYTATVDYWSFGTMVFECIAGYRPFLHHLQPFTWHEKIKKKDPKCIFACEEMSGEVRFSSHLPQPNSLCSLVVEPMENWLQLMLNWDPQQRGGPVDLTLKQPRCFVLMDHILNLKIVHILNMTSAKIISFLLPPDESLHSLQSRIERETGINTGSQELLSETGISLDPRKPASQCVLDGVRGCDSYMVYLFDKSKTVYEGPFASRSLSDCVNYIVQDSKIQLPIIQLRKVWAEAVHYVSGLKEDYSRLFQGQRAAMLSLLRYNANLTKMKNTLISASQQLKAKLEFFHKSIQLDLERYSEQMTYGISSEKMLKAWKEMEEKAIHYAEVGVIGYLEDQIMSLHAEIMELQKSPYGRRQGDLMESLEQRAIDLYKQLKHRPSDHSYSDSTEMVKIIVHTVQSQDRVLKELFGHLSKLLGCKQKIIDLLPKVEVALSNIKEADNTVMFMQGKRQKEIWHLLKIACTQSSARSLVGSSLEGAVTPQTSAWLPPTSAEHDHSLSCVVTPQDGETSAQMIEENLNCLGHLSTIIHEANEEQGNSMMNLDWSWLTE

[5] = molecular target: HA-tagged human IKKγ (human) (UniProt Q9Y6K9); test: co-IP; HEK293 transfected; IKKγ immunoprecipitated (anti-IKKγ), blot with anti-HA, anti-IKKα/β, anti-TRAF2 or anti-Flag; RIPA buffer; cells silenced or not for FKBP51 (Figure 2B); with Flag-FKBP51 or its mutants (Figure 5B, 5C)

binding [1]: binds
B1: HA-tagged human TAK1, O43318 1-606 (protein)
chain: MSTASAASSSSSSSAGEMIEAPSQVLNFEEIDYKEIEVEEVVGRGAFGVVCKAKWRAKDVAIKQIESESERKAFIVELRQLSRVNHPNIVKLYGACLNPVCLVMEYAEGGSLYNVLHGAEPLPYYTAAHAMSWCLQCSQGVAYLHSMQPKALIHRDLKPPNLLLVAGGTVLKICDFGTACDIQTHMTNNKGSAAWMAPEVFEGSNYSEKCDVFSWGIILWEVITRRKPFDEIGGPAFRIMWAVHNGTRPPLIKNLPKPIESLMTRCWSKDPSQRPSMEEIVKIMTHLMRYFPGADEPLQYPCQYSDEGQSNSATSTGSFMDIASTNTSNKSDTNMEQVPATNDTIKRLESKLLKNQAKQQSESGRLSLGASRGSSVESLPPTSEGKRMSADMSEIEARIAATTAYSKPKRGHRKTASFGNILDVPEIVISGNGQPRRRSIQDLTVTGTEPGQVSSRSSSPSVRMITTSGPTSEKPTRSHPWTPDDSTDTNGSDNSIPMAYLTLDHQLQPLAPCPNSKESMAVFEQHCKMAQEYMKVQTEIALLLQRKQELVAELDQDEKDQQNTSRLVQEHKKLLDENKSLSTYYQQCKKQLEVIRSQQQKRQGTS

binding [2]: binds
B2: HA-tagged human TAK1 (protein, UniProt O43318 1-606)
chain: B1 chain

binding [3]: binds
B3: HA-tagged human IKKα, O15111 1-745 (protein)
chain: T3 sequence

binding [3]: binds
B4: HA-tagged human TRAF2, Q12933 1-501 (protein)
chain: T1 chain

binding [4]: binds
B5: endogenous FKBP51 (protein, UniProt Q13451 1-457)
chain: T2 sequence

binding [5]: no binding
B6: Flag-FKBP51-mutPPIase (pRK5 FKBP51-PPIase-mut; FD67DV) (protein, UniProt Q13451 1-457)
chain: T2 sequence with F67D, D68V

binding [5]: binds
B7: Flag-FKBP51 (pRK5 FKBP51 WT) (protein, UniProt Q13451 1-457)
chain: T2 sequence

binding [5]: no binding
B8: Flag-FKBP51-mutTPR (pRK5 FKBP51-TPR-mut; K352A/R356A) (protein, UniProt Q13451 1-457)
chain: T2 sequence with K352A, R356A
